{
  "source": "PubChem BioAssay AID2147",
  "about": "(National Center for Advancing Translational Sciences (NCATS), 2009)",
  "note": "About 3,600 (1.6%) of roughly 230,000 compounds were called active. Inconclusive means that the source gave no clear call. Such entries were picked first, then a sample of the others. Calls come from the whole dose curve; as a rule, active = well fitted inhibition curve with a large enough effect (not every such curve was filed as active); inconclusive = small, poorly fitted or top-dose-only effect, or another doubt; inactive = no such curve, though single readings can be large or run the other way. A potency beside an inconclusive call is a rough fit, not a confirmed value. Note: nearly all actives have a fitted effect of over 50% in size. Potency is the fitted concentration of half-maximal effect; tags give direction and shape of the fitted curve.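 Throughout, for activity change, negative = inhibition: 0% = wells with enzyme and -100% = buffer wells without enzyme.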",
  "data": [
    {"biological_target": "Lysine-specific demethylase 4E (Homo sapiens) (UniProt B2RXH2)", "sequence (B2RXH2 whole entry, looked up, the tested form may be a part)": "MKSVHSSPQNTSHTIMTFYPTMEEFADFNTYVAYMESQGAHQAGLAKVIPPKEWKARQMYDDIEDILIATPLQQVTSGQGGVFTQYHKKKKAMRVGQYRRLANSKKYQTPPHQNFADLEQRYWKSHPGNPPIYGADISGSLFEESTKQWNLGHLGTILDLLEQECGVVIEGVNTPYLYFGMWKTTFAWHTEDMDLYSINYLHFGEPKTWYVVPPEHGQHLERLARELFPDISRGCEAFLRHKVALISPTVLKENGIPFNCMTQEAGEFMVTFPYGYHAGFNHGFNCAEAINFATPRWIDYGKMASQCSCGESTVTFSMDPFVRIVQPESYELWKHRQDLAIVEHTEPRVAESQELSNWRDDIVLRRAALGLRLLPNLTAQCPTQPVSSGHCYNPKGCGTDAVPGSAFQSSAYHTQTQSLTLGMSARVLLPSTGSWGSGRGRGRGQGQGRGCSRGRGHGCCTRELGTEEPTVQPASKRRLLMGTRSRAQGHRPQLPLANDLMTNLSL", "assay": "qHTS Assay for Inhibitors of Human Jumonji Domain Containing 2E (JMJD2E)", "details": "JMJD2E catalytic domain, FDH-coupled NADH fluorescence (FDH is formaldehyde dehydrogenase); series mostly up to 57.1 µM; activity change, negative = inhibition: at the top concentration", "values": [
      {"smiles": "CC(C)c1ccc(-n2c(O)c(/C=N/NC(=O)c3ccncc3)c(=O)[nH]c2=O)cc1", "Potency": "inconclusive: 15.8 µM [inhibitor, partial curve]"},
      {"smiles": "CCS(=O)(=O)N1N=C(c2cccc(NS(C)(=O)=O)c2)CC1c1ccccc1", "note": "(stereo not given)", "Potency": "inconclusive: 39.8 µM [inhibitor, single point]"},
      {"smiles": "C=CCn1c(O)c(C(CC)=Nc2cc(OC)ccc2OC)c(=O)[nH]c1=O", "activity change, negative = inhibition": "inactive: -22.8%"},
      {"smiles": "C/C(=N/OC(=O)N(C)C)c1ncc(C(F)(F)F)cc1N1CCOCC1", "Potency": "inconclusive: 25.1 µM [inhibitor, partial curve]"},
      {"smiles": "CCC(CC)NCc1c[nH]c2ccccc12", "Potency": "inconclusive: 28.2 µM [inhibitor, single point]"},
      {"smiles": "C[C@]12CC[C@@H]3c4ccc(O)c(O)c4CC[C@H]3[C@@H]1CC[C@@H]2O", "Potency": "active: 1.41 µM"},
      {"smiles": "CCC(=NCCCN(CC)CC)c1c(O)n(C2CCCCC2)c(=O)[nH]c1=O", "activity change, negative = inhibition": "inactive: -8.65%"},
      {"smiles": "Nc1ccccc1C(=O)OCCOc1ccccc1", "Potency": "inconclusive: 31.6 µM [inhibitor, partial curve]"},
      {"smiles": "CC(=O)Nc1cc(Cl)c(N=Cc2ccc(O)cc2O)cc1Cl", "Potency": "inconclusive: 39.8 µM [inhibitor, single point]"},
      {"smiles": "O=C(Nc1ccccc1)Oc1ccccc1", "activity change, negative = inhibition": "inactive: -7.99%"},
      {"smiles": "O=C(Cn1ncc2ccccc21)N1CCC2(CC1)OCCO2", "activity change, negative = inhibition": "inactive: 7.22%"},
      {"smiles": "O=c1c(O)c(-c2ccc(O)c(O)c2)oc2c(O)c(O)cc(O)c12", "Potency": "active: 2.82 µM"},
      {"smiles": "Cn1cc2c([N+](=O)[O-])cc([N+](=O)[O-])cc2n1", "activity change, negative = inhibition": "inactive: -2.57%"},
      {"smiles": "CC(=O)Nc1ccccc1C(=O)OCc1ccccc1F", "Potency": "inconclusive: 35.5 µM [inhibitor, single point]"},
      {"smiles": "CC1(C)C(=O)[C@@H]2OC2[C@@]2(C)C1CC(O)[C@]1(C)C2CC[C@@]2(C)C(c3ccoc3)OC(=O)C3OC312", "note": "(stereo not given in full)", "activity change, negative = inhibition": "inactive: 4.14%"},
      {"smiles": "Cc1cc(OCc2nn[nH]n2)c2c3c(c(=O)oc2c1)CCCC3", "Potency": "inconclusive: 28.2 µM [inhibitor, partial curve]"},
      {"smiles": "CC1=C(O)C(=O)[C@H]2O[C@@H]2C1=O", "Potency": "inconclusive: 8.91 µM [inhibitor, full curve]"},
      {"smiles": "CCC(=O)N1N=C(c2c(O)n(C)c(=O)n(C)c2=O)CC1c1ccccc1", "note": "(stereo not given)", "Potency": "inconclusive: 28.2 µM [inhibitor, single point]"},
      {"smiles": "CSc1ccc(C(=O)C2CCCN(Cc3cc4ccccc4[nH]3)C2)cc1", "note": "(stereo not given)", "activity change, negative = inhibition": "inactive: -9.88%"},
      {"smiles": "COC1=CC23CCCN2CCc2cc4c(cc2C3C1O)OCO4", "note": "(stereo not given)", "Potency": "inconclusive: 28.2 µM [inhibitor, single point]"},
      {"smiles": "CN1CCc2cc3c(cc2C1O)OCO3", "note": "(stereo not given)", "Potency": "inconclusive: 28.2 µM [inhibitor, partial curve]"},
      {"smiles": "O=C1NC(=O)N(Cc2ccco2)C(=O)/C1=C\\c1cccn1CCOc1ccc(Cl)cc1", "activity change, negative = inhibition": "inactive: 3.48%"},
      {"smiles": "C=CCn1c(O)c(C(CC)=Nc2ccc(N(C)C)cc2)c(=O)[nH]c1=O", "Potency": "inconclusive: 10 µM [inhibitor, partial curve]"},
      {"smiles": "CN1C(=O)N(C)C(=O)C(CCc2ccncc2)(CCc2ccncc2)C1=O", "Potency": "inconclusive: 35.5 µM [inhibitor, partial curve]"},
      {"smiles": "COc1cc2c(cc1O)-c1c(O)c(OC)cc3c1[C@H](C2)N(C)CC3", "Potency": "inconclusive: 35.5 µM [inhibitor, partial curve]"},
      {"smiles": "CCn1ccnc1CN1CCCC(C(=O)c2cccc(C(F)(F)F)c2)C1", "note": "(stereo not given)", "activity change, negative = inhibition": "inactive: 3.76%"},
      {"smiles": "COc1ccc(Br)cc1CN1CCN(C(=O)Cc2ccccc2)CC1", "Potency": "inconclusive: 39.8 µM [inhibitor, single point]"},
      {"smiles": "Cc1nc2cc(-c3cccc(F)c3)nn2c(C)c1CCC(=O)N1CCC2(CC1)OCCO2", "Potency": "inconclusive: 31.6 µM [inhibitor, single point]"},
      {"smiles": "N#Cc1ccccc1Cn1cc(C(=O)c2cccs2)c2ccccc21", "Potency": "inconclusive: 35.5 µM [inhibitor, single point]"},
      {"smiles": "Brc1ccccc1", "activity change, negative = inhibition": "inactive: 4.07%"},
      {"smiles": "Cc1o[nH]c(=O)c1CC(N)C(=O)O", "note": "(stereo not given)", "activity change, negative = inhibition": "inactive: -2.93%"},
      {"smiles": "CN(C)CCN=Cc1c(O)n(-c2cccc(C(F)(F)F)c2)c(=O)[nH]c1=O", "Potency": "inconclusive: 39.8 µM [inhibitor, single point]"},
      {"smiles": "CCCCn1c(=O)c(C(=O)Nc2cnccn2)c(O)c2ccccc21", "Potency": "inconclusive: 5.62 µM [inhibitor, single point]"},
      {"smiles": "COC(=O)c1ccc(C(=O)OC)c(NC(=O)Oc2ccccc2)c1", "Potency": "inconclusive: 31.6 µM [inhibitor, partial curve]"},
      {"smiles": "CNC(=O)Oc1cccc(-c2cn3cc(OC(=O)NC)ccc3n2)c1", "Potency": "inconclusive: 22.4 µM [inhibitor, partial curve]"},
      {"smiles": "CC(=O)Nc1ccc(N=Cc2c(O)n(Cc3ccco3)c(=O)[nH]c2=O)cc1", "Potency": "inconclusive: 39.8 µM [inhibitor, single point]"},
      {"smiles": "C=C(CO)CC1CC(O)[C@]2(C)OC3CC4OC5C[C@]6(C)O[C@]7(C)CCC8OC9C[C@]%10(C)OC%11C(C)=CC(=O)OC%11CC%10OC9C[C@@H](C)C8OC7CC6O[C@]5(C)C/C=C\\C4OC3CC2O1", "note": "(stereo not given in full)", "activity change, negative = inhibition": "inactive: 2.33%"},
      {"smiles": "CCOP(=O)(OCC)c1nc(-c2ccc(Cl)cc2)oc1NCc1ccccc1", "Potency": "inconclusive: 31.6 µM [inhibitor, partial curve]"},
      {"smiles": "CCCCC(=O)N/N=C/c1c(O)n(Cc2ccco2)c(=O)[nH]c1=O", "Potency": "active: 25.1 µM"},
      {"smiles": "CCOC(=O)CC(NC(=O)C(Cc1ccc(N(CCCl)CCCl)cc1)NC(C)=O)C(=O)OCC", "note": "(stereo not given)", "Potency": "active: 10 µM"},
      {"smiles": "N[C@H](CCP(=O)(O)O)C(=O)O", "Potency": "inactive"},
      {"smiles": "C=CCn1c(O)c(/C(CC)=N/NC(=S)Nc2ccccc2)c(=O)[nH]c1=O", "Potency": "inconclusive: 39.8 µM [inhibitor, single point]"},
      {"smiles": "C=CCn1c(O)c(C(CC)=Nc2cccc(C(=O)O)c2)c(=O)[nH]c1=O", "Potency": "inconclusive: 35.5 µM [inhibitor, partial curve]"},
      {"smiles": "COc1ccc(CCn2c(O)c(C=NCc3ccc4c(c3)OCO4)c(=O)[nH]c2=O)cc1OC", "activity change, negative = inhibition": "inactive: 2.47%"},
      {"smiles": "CC(=O)c1cc(C(C)=O)c(C)[n+](C)c1C", "Potency": "inconclusive: 28.2 µM [inhibitor, partial curve]"},
      {"smiles": "S=c1[nH]nc(-c2cccs2)n1C1CCCCC1", "Potency": "inconclusive: 35.5 µM [inhibitor, single point]"},
      {"smiles": "CC1CCC(NCCc2ccc3c(c2)OCO3)CC1", "note": "(stereo not given)", "Potency": "inconclusive: 35.5 µM [inhibitor, single point]"},
      {"smiles": "CCN(CC)C1=NC(=[N+](CC)CC)c2ccccc21", "Potency": "inconclusive: 39.8 µM [inhibitor, single point]"},
      {"smiles": "CCN(CC)c1ccc(N=Cc2c(O)n(CCc3ccc(OC)c(OC)c3)c(=O)[nH]c2=O)cc1", "activity change, negative = inhibition": "inactive: -0.864%"},
      {"smiles": "COC(=O)C1(C)C=C2C(=C(C)C(=O)C2C)CN1", "note": "(stereo not given)", "Potency": "inconclusive: 25.1 µM [inhibitor, single point]"},
      {"smiles": "O=c1[nH]c(O)c(N=Nc2cccc(S(=O)(=O)N3CCOCC3)c2)c(=O)[nH]1", "activity change, negative = inhibition": "inactive: -0.597%"},
      {"smiles": "CN1C(=O)/C(=C/C=C/c2ccco2)C(=O)NC1=S", "Potency": "inconclusive: 28.2 µM [inhibitor, single point]"},
      {"smiles": "COc1ccc2ccc(O)c(CN3CC=C(c4ccccc4)CC3)c2c1", "Potency": "inconclusive: 39.8 µM [inhibitor, single point]"},
      {"smiles": "NC(=NCc1ccc(Cl)cc1)SCCCc1cnc[nH]1", "activity change, negative = inhibition": "inactive: 2.67%"},
      {"smiles": "O=C1CN=C(c2ccccc2)c2cc(Br)ccc2N1Cc1cc(=O)n2ccccc2n1", "Potency": "inconclusive: 28.2 µM [inhibitor, single point]"},
      {"smiles": "C/C=C(\\C)CN1CCN(c2ccccc2F)CC1", "Potency": "inconclusive: 39.8 µM [inhibitor, single point]"},
      {"smiles": "COc1c(CC=C(C)C)c2c(c3oc(=O)c(-c4ccc(O)cc4)c(O)c13)C=CC(C)(C)O2", "Potency": "inconclusive: 35.5 µM [inhibitor, single point]"},
      {"smiles": "COC(=O)[C@@H]1[C@@H]2C[C@H]3c4[nH]c5cc(OC)ccc5c4CCN3C[C@@H]2C[C@H](OC(=O)/C=C\\c2cc(OC)c(OC)c(OC)c2)[C@H]1OC", "Potency": "inconclusive: 15.8 µM [inhibitor, partial curve]"},
      {"smiles": "NC(N)=N/N=C/c1ccc(N2CCOCC2)cc1", "Potency": "inconclusive: 35.5 µM [inhibitor, single point]"},
      {"smiles": "C=CCN1C(=O)NC(=O)/C(=C/c2cc3c4c(c2)CCCN4CCC3)C1=O", "Potency": "active: 20 µM"},
      {"smiles": "COc1cc2c(cc1O)C(Cc1ccc(O)cc1)NCC2", "note": "(stereo not given)", "Potency": "inconclusive: 39.8 µM [inhibitor, single point]"},
      {"smiles": "CN1CCN(c2ccc(S(=O)(=O)C(F)(F)F)cc2[N+](=O)[O-])CC1", "activity change, negative = inhibition": "inactive: 9.47%"},
      {"smiles": "CCc1c(C(=O)OC)ncc2[nH]c3cc(OC)c(OC)cc3c12", "Potency": "inconclusive: 31.6 µM [inhibitor, partial curve]"},
      {"smiles": "CCCNC(=O)c1c(N)n(CC2CCCO2)c2nc3ccccc3nc12", "note": "(stereo not given)", "Potency": "inconclusive: 31.6 µM [inhibitor, partial curve]"},
      {"smiles": "Fc1ccccc1N1CCN(Cc2c(F)cccc2F)CC1", "Potency": "active: 20 µM"},
      {"smiles": "O=C(C[N+]12CCN(CC1)CC2)NCCc1ccc(Cl)cc1Cl", "Potency": "inconclusive: 39.8 µM [inhibitor, single point]"},
      {"smiles": "Cc1ccccc1C(=O)NNC(=S)NC(=O)COc1ccccc1", "Potency": "inconclusive: 39.8 µM [inhibitor, single point]"},
      {"smiles": "CCC(C)C1NC(=O)C(C(C)=O)=C1O", "note": "(stereo not given)", "Potency": "inconclusive: 31.6 µM [inhibitor, single point]"},
      {"smiles": "COc1ccc2[nH]c(C)c(CCNCc3cc(OC)c(OC)c(OC)c3)c2c1", "Potency": "inconclusive: 14.1 µM [inhibitor, partial curve]"},
      {"smiles": "C#CCOc1cc(C2C3=C(COC3=O)Nc3cc4c(cc32)OCO4)ccc1OC", "note": "(stereo not given)", "Potency": "inconclusive: 35.5 µM [inhibitor, partial curve]"}
    ]}
  ]
}
